In all, about 110,000 compounds were measured (“z-score”: median about -0.1, highest 2% from about 2 on). The list shows a part of the results.

For the experiment, the target named is Metabotropic glutamate receptor 8 (Rattus norvegicus) (UniProt P70579). The experiment in a line: mGluR8 Gi/Go-coupled signaling modulation – cell-based, rat, thallium flux, HTS, primary screen (AID 488969). The following applies: HEK293 rat mGluR8, GIRK (G protein-gated inwardly rectifying potassium channel) thallium flux, FluoZin2; at 10 µM; stronger effect = higher value; submaximal glutamate (EC20) added with thallium.
UniProt P70579, sequence (P70579 whole entry, looked up): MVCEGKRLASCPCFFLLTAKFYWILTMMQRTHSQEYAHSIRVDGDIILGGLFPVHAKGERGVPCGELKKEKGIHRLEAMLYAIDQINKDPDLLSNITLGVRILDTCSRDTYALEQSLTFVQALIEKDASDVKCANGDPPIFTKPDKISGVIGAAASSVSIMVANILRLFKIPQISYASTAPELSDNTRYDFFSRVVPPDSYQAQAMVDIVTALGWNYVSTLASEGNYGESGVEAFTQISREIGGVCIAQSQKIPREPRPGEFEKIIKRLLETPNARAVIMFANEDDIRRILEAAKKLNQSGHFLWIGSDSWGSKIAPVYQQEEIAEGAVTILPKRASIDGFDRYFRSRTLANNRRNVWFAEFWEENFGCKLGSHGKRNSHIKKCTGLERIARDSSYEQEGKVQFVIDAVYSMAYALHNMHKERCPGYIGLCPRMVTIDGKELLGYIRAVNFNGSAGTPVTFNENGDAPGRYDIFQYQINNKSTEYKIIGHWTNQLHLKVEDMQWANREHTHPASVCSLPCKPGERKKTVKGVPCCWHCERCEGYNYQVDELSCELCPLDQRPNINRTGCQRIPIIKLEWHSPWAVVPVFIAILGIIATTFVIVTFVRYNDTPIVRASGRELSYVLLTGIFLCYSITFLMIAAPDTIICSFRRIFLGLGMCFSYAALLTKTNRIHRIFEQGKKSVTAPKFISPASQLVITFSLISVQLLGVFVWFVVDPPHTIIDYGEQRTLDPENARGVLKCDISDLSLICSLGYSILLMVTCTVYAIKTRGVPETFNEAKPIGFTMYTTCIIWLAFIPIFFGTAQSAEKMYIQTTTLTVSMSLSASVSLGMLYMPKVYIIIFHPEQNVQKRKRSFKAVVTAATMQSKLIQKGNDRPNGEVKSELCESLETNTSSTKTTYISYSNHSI
`Nn1c(SCC(=O)Nc2ccc3c(c2)OCO3)nnc1-c1ccncc1` gave a z-score of -0.176. For `O=C(c1cc(-c2ccccc2)nc2ccccc12)N1N=C(C(F)F)CC1(O)C(F)F` (stereo not drawn) the value was -0.111; for `CCOC(=O)c1c(NC(=O)CSc2nncs2)sc(C)c1C`, -0.535.

`COC(=O)c1cc2sc(Cl)cc2n1Cc1nc(-c2cccc(C)c2)oc1C`: the z-score is -0.256. `COc1ccc(Nc2nc(NCCO)nc(OC)n2)cc1` displayed a z-score of 0.28. For `CCOC(=O)Cn1nc(C)c(-c2ccccc2)c1N` the value was 0.0625. `COc1ccc(-n2c(SCC(=O)NNC(=O)c3ccccc3C)nnc2-c2ccncc2)cc1`: the z-score was -0.25. For `Cc1ccc(NC(=S)N(CCN(C)C)C(C)c2ccco2)cc1C` (stereo not drawn), the z-score is -0.172. For `CN1CCN(C(=O)C2(NC(=O)Nc3cccc(F)c3)CCCCC2)CC1` the value was -0.329; for `CCc1nc2ccc(C)cc2c(C(=O)Oc2cccc3cccnc23)c1C`, -0.12. The molecule `c1ccc(Nc2nc(-c3cccnc3)cs2)nc1` returned a z-score of -0.108. For `CC(C)CC(NS(=O)(=O)c1ccc2c(c1)oc(=O)n2C)C(=O)NCc1cccnc1` (stereo not drawn) the value was -1.69; for `Cc1nnc(NC(=O)CSc2cn(Cc3ccccc3)c3ccccc23)s1`, 0.0158. Regarding `CC1(C)CC(C(=O)NCCC(c2ccccc2)c2ccco2)CCO1` (stereo not drawn), the z-score was -0.131. For `CN1CCN(C(=O)c2ccc3c(=O)n(CCc4ccccc4)c(=S)[nH]c3c2)CC1` the value was 0.284; for `O=C(NC1CCCC1)C(NS(=O)(=O)c1cccc2nsnc12)c1ccccc1` (stereo not drawn), 0.294. For `COc1ccc(C2Nc3ccccc3C(=O)N2Cc2ccco2)cc1COc1ccc(F)cc1` (stereo not drawn) the value was -0.406; for `CC(=O)C1=C(c2ccccc2)NC(=O)NC1c1ccccc1OCC(=O)NCc1ccccc1` (stereo not drawn), -0.25; for `N=c1c2c(n(Cc3ccccc3)c3c1CCC3)CCC2`, 0.223. Molecule `CCOC(=O)N1CCC(NC(=O)c2sc3nc4n(c(=O)c3c2C)CCCC4)CC1` yielded a z-score of -0.186. In the case of `O=C(COC(=O)Cc1cn2ccsc2n1)NCc1ccc2c(c1)OCO2`, the z-score was 0.0905. Then `CC(CCc1ccccc1)NC(=O)c1ccc(NC(=O)c2ccccc2)cc1` (stereo not drawn), with -0.424; and `COC(=O)C1=NNC2(c3ccc(Cl)cc3)C(=O)N(c3ccc(Cl)cc3)C(=O)C12` (stereo not drawn), with 0.081. On to `O=C(/C=C/c1cccc(OCc2ccccc2)c1)c1cccnc1`, for which the z-score was -0.519. Molecule `COC(=O)C1=C(C)N(Cc2ccc(OC)cc2)C(=O)C1` had a z-score of -0.151. In turn, `O=C(Nc1ccccc1)NC1CC2CCC(C1)N2Cc1nnnn1Cc1ccc2c(c1)OCO2` (stereo not drawn) yielded a z-score of 0.0722. With `Cc1ccccc1-c1nc(CN2CCC(C(=O)NC3CCN(Cc4ccccc4)CC3)CC2)c(C)o1`, the z-score amounted to 0.236. For `O=C1OC2CCC1(c1ccccc1)C2` (stereo not drawn) the value was 0.00964; for `O=C(CN(Cc1ccc(F)cc1)S(=O)(=O)c1ccc(S(=O)(=O)N2CCOCC2)cc1)Nc1ccccc1`, -0.0119; for `Cc1ccc(Cc2nc(-c3cccc(C)c3)no2)cc1`, -0.14. `C=CCn1c(SCC(=O)NC2CCCCC2)nnc1C(C)NC(=O)c1cccs1` (stereo not drawn) yielded a z-score of -0.128. `COc1ccc(C2NC(=O)c3sc(=S)n(-c4ccccc4)c3N2)cc1` (stereo not drawn) came in with a z-score of -0.318.

With `COc1cc(Nc2ccc(C)cc2)c([N+](=O)[O-])nc1[N+](=O)[O-]`, the z-score was -1.45.

`CCOC(=O)Nc1cccc(OCC(=O)Nc2ccccc2OCC)c1` registered a z-score of -0.0863. Turning to `CCOc1cc(NS(=O)(=O)CC)c(OCC)cc1NC(=O)c1ccco1`, the z-score is -0.521.

`Cc1ccc(S(=O)(=O)N2CCN(C(=O)CCC(=O)NCc3ccc(F)cc3)CC2)cc1` showed a z-score of -0.183. For `COc1ccc(C2Nc3ccccc3C(=O)N2c2ccc(C)cc2)cc1COc1ccccn1` (stereo not drawn) the value was -0.382. For `CN1c2ccccc2C2(C)CCCC3=Cc4cc([N+](=O)[O-])cc([N+](=O)[O-])c4OC312` (stereo not drawn) the value was -0.376; for `O=C(NC(=S)Nc1ccccn1)c1ccc([N+](=O)[O-])cc1`, 0.166; for `COC(=O)Cc1c(C)c2ccc(OCC(=O)NCc3ccc4c(c3)OCO4)cc2oc1=O`, 0.0387.

Consider `Cc1ccccc1C(=O)Oc1cccc(Nc2ncnc3ccccc23)c1`, for which the z-score was -1.4. `COC(=O)C1=C(C(=O)OC)C2(OC1c1ccccc1C)C(=O)c1ccccc1C2=O` (stereo not drawn): the z-score was -0.448.

As to `CCOc1ccc(C2C=C(c3ccc(C)cc3)Nc3ncnn32)cc1` (stereo not drawn), the z-score is -0.263. In the case of `O=C(c1ccccc1)c1ccc(N2CCCC2)cc1`, the z-score was determined as 0.163. In turn, `CCOC(=O)c1c(C)[nH]c(C=C2C(=O)CCCC2=O)c1O` showed a z-score of -0.22. Then `O=C(COC(=O)/C=C/c1ccccc1)Nc1ccccc1Br`, with 0.366; and `COC(=O)/C(=C/c1ccco1)NC(=O)c1ccco1`, with 0.0704; and `CS(=O)(=O)N(CC(=O)Nc1ccccc1)Cc1ccc(Cl)cc1`, with 0.264.

Molecule `CCOC(=O)c1c(NC(=O)C2CCCN(S(=O)(=O)c3ccc(C)cc3)C2)sc2c1CCCC2` (stereo not drawn) had a z-score of -1.01.

Molecule `O=C(c1ccc(Br)o1)N1CCN(C/C=C/c2ccccc2)CC1` had a z-score of 0.0888. Then `CCOc1ccc(S(=O)(=O)Nc2cc(S(=O)(=O)N(CC)CC)ccc2N2CCCC2)cc1`, with -0.0168.

As for `COc1ccc(NC(=O)N(C2CCCCC2)C2CCN(C(C)C)CC2)c(OC)c1`, the z-score is -0.188. `COc1ccc(OC)c(NC(=O)N[C@@H](Cc2ccccc2)C(=O)O)c1` registered a z-score of -0.217. In turn, `Cc1nn(C)cc1/C=C/C(=O)c1cccs1` gave a z-score of 0.139. For `O=[N+]([O-])c1ccc(-c2nnc(-c3ccccc3)c(NCCCO)n2)cc1` the value was -0.236; for `O=C(CN1CCOc2ccccc21)NC1CCCCCCC1`, -0.331; for `Cc1ccc(S(=O)(=O)N2CCCC(C(=O)N3CCCc4ccccc43)C2)cc1` (stereo not drawn), -0.204. For `O=C(c1ccc(O)cc1)c1ccc(C(=O)c2ccc(O)cc2)cc1` the value was 0.0126; for `CCn1c(SCC(=O)N/N=C/c2ccc(C)o2)nnc1-c1ccc(C)cc1`, -0.634; for `c1ccc(CNCCN2CCNCC2)nc1`, 0.129. For the molecule `COc1ccc2c(c1)[nH]c1c(=O)n(CCN(C)C)cnc12`, the z-score amounted to 0.385.

Take `O=C(Nc1nnc(SCc2ccccc2)s1)c1cccs1`: the z-score was -0.61. Consider `COc1ccc(S(=O)(=O)N2CCC(C(=O)N3CCOCC3)CC2)cc1`, for which the z-score was determined as 0.152. On to `O=C(NCCOCC(F)(F)C(F)F)c1cc(F)c(F)cc1Cl`, for which the z-score is 0.363. For the molecule `COc1ccccc1Cn1c(-c2ccco2)nc2nc3ccccc3nc21`, the z-score was found to be 0.295.

In the case of `CCN1CCc2c(sc(N)c2C#N)C1`, the z-score amounted to 0.055.

As for `Cc1ccc(NS(=O)(=O)c2cc([N+](=O)[O-])ccc2NNC(=S)Nc2cc(C)ccc2C)c(C)c1`, the z-score is -1.28. With `O=C1CC(c2ccco2)Cc2nc(Nc3nc(-c4ccccc4)c4ccccc4n3)ncc21` (stereo not drawn), the z-score was -0.969. `CCOc1ccc(S(=O)(=O)N(CC)CC)cc1NS(=O)(=O)c1ccc(F)c(F)c1F` showed a z-score of -0.454. In the case of `CC(C)c1cc(C(=O)N/N=C/C=C/c2ccccc2)n[nH]1`, the z-score was -0.67. Molecule `Cc1cccc2cc(CN(Cc3nnnn3C3CCCCC3)C3CCCC3)c3nnnn3c12` displayed a z-score of -0.708. `CCCn1nc2cc(C(=O)NCC34CC5CC(CC(C5)C3)C4)ccc2c1OCC` gave a z-score of -0.14. `CC(C)OCCCNC(=O)c1cc2c(=O)n(C)c3ccccc3c2n1C` registered a z-score of -0.527. Take `Cn1ncc2c1ncn1nc(CCc3ccccc3)nc21`: the z-score was -0.114. Turning to `CCCn1c(N)nc2ccccc21`, the z-score is -0.0817. With `COc1ccc(CCNC2=C(Cl)C(=O)N(CCc3ccccc3)C2=O)cc1OC`, the z-score was -0.435. `Cn1nc(-c2ccccc2)c(C(=O)Nc2ccc(Cl)cc2)c1Cl`: the z-score is -0.313. The molecule `CCN(Cc1ccccc1)S(=O)(=O)c1ccc(S(=O)(=O)N(Cc2ccccn2)Cc2ccco2)cc1` gave a z-score of 0.274. On to `Cc1c(C(=O)N2CCOCC2)oc2ccc(S(=O)(=O)N3CCCC3)cc12`, for which the z-score stood at 0.0159. Take `Cc1ccc2nc(/C(C#N)=C\c3ccc(OC(=O)c4cccs4)cc3)[nH]c2c1`: the z-score was -0.0744.

Consider `S=C(c1ccc(Br)cc1)N1CCN(Cc2ccccc2)CC1`, for which the z-score was -0.0404.

In the case of `CCO/C=C/C(O)(CNC(=O)c1ccc(C(C)(C)C)cc1)C(F)(F)F` (stereo not drawn), the z-score amounted to 0.609.

Turning to `COc1ccc(-c2noc(CN(C(=O)c3ccc(OC(C)=O)cc3)C(C)C)n2)cc1OC`, the z-score is -0.302.

`Cc1cccc(CN2CCN(C(=O)c3ccccc3F)CC2)c1` had a z-score of -0.00448. In the case of `O=C(NC1CCCC1)c1ccc(CNc2c(N3CCOCC3)c(=O)c2=O)cc1`, the z-score was -0.273. `O=S(=O)(/N=C(/Nc1cc(N2CCOCC2)ncn1)c1ccc(F)cc1)c1ccccc1` came in with a z-score of 0.0735.

`CC1(C)CC(=O)C2=C(C1)N(c1cccc(Cl)c1)C(=O)NC2(C(F)(F)F)C(F)(F)F`: the z-score was -0.549. In turn, `CCC(C)n1c(SCC(=O)/C(C#N)=C(\C)N)nc2ccccc2c1=O` (stereo not drawn) yielded a z-score of 0.427.

`Cc1ccc(C2CC(c3ccco3)n3ncnc3N2)cc1` (stereo not drawn) gave a z-score of 0.207. Molecule `CN(C(=O)c1c(Cl)cnn1C)C12CC3CC(CC(C3)C1)C2` showed a z-score of 0.0934. For the molecule `COc1ccc(/C=N/Nc2cc(C)nc(-n3nc(C)cc3C)n2)cc1`, the z-score was -0.0167. `CC(C)c1nc(N2CCCC2)c(C#N)c2c1CCCC2`: the z-score turned out to be 0.908. In turn, `Cc1ccc(S(=O)(=O)Nc2ccc3ncccc3c2)cc1` came in with a z-score of 0.627. Molecule `O=C(NCCc1ccccc1)c1cnn2c(C(F)F)cc(C3CC3)nc12` gave a z-score of -1.35.

Regarding `CCn1c(CNC(=O)COc2ccc(C(C)C)cc2)nnc1SCC(=O)NC1CCCCC1C` (stereo not drawn), the z-score was -0.145. With `CCOC(=O)Cn1c(-c2ccc(Cl)nc2)nc2ccccc21`, the z-score is 0.0162. For `Cc1ccc(SCc2cc(-c3ccc(Cl)cc3)no2)cc1`, the z-score was -0.142. `C=CCc1cc(C=O)cc(OC)c1OCc1ccc(Cl)cc1` showed a z-score of 0.88.

Turning to `CC1CCN(C(=O)C2CCN(CC(C)c3ccccc3)CC2)CC1` (stereo not drawn), the z-score came to 0.75. The molecule `Nc1ccccc1NC1=CC(=O)CC(c2ccco2)C1` (stereo not drawn) yielded a z-score of 1.27.

`O=C1CCN2C=Nc3cccc4ccc1c2c34` showed a z-score of -1.06. Molecule `COc1ccc(CCNC(=O)CCN2C(=O)C(C)Oc3ccc(C)cc32)cc1OC` (stereo not drawn) came in with a z-score of -0.462. For `CC(CNC(=O)c1ccc(Br)o1)NC(=O)c1ccc(Br)o1` (stereo not drawn) the value was 0.235.

Turning to `CC(Oc1ccc(Cl)cc1Cl)C(=O)NNC(=O)C(=O)N1CCCCC1` (stereo not drawn), the z-score was -1.87.

Molecule `COCc1nnc(NC(=O)CCCOc2ccccc2)s1` registered a z-score of 0.0976. For `O=C(O)c1ccccc1-c1ccccc1C(=O)Nc1cccc2ccccc12` the value was -0.0773. Molecule `CCCOc1ccc(CSCCNC(=S)Nc2ccccc2)cc1` showed a z-score of 0.264. For the molecule `Cc1ccc2nc3sc(C(=O)NCc4ccco4)c(N)c3cc2c1`, the z-score is -0.222.

The values are drawn from PubChem BioAssay AID488969 (Vanderbilt High Throughput Screening Facility, 2010).
